Variants at the background level are over-represented here.
B1: TPR 5TU (parent)
chain: GGAUCUUCUCGAUCUAACAAAAAAGACAAAUCUGCCACAAAGCUUGAGAGCAUCUUCGGAUGCAGAGGCGGCAGCCUUCGGUGGCGCGAUAGCGCCAACGUUCUCAACUAUGACACGCAAAACGCGUGCUCCGUUGAAUGGAGUUUAUCAUG

Variants of: B1
Test: polymerase ribozyme fitness, log enrichment relative to wild type (log ratio); higher = more active; in vitro selection for triplet polymerase activity
Method in brief: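 Genotype fitness is the logarithm of its enrichment divided by wild-type enrichment, using inverse-variance-weighted averages of replicates. That logarithm is base 2. Enrichment was measured by Illumina sequencing of input and output libraries from one triplicate in vitro selection round, with frozen incubation at −7 °C, on PCR-built, transcribed mutant libraries of each subunit of a heterodimeric triplet polymerase ribozyme, retaining genotypes with ≥10 input reads and ≥1 read per output.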

Row | Variant | polymerase ribozyme fitness (log ratio)
1 | A21C C43G G84U G100C U101G G136A A142U | ≤ -4.2
2 | A20U G71C U77G C93U | ≤ -4.2
3 | A21C C43U C63U G86U | ≤ -4.2
4 | A20C A47C | -0.462
5 | A21G C57G C63U G88A U151G G152U | ≤ -4.2
6 | A21C A52U U82A C85G C116U | ≤ -4.2
7 | A20U C54U C85A C114U C116G | ≤ -4.2
8 | A21C G42U C69G C85U A98U A106G A120U | ≤ -4.2
9 | A21C C32G G48A A122G G126U | ≤ -4.2
10 | A20U A24C G67C | ≤ -4.2
11 | A20G C27A G50A A52U C93G C118U | ≤ -4.2
12 | A20C U33G U45G C51U G58C G70A C95U A98G G117C | ≤ -4.2
13 | A20U C96G A150U | 0.47
14 | A21C C35U G84A U90G C99U U127G U151G | ≤ -4.2
15 | A20C C35U C54A C75G A89C G133U | ≤ -4.2
16 | A21U A30G G59C A60U C93U C103G C125G U148A | ≤ -4.2
17 | A20U A28U C36G C75G C87G | ≤ -4.2
18 | A20U A23U U55G U61A A66C C118U | ≤ -4.2
19 | A21U A37G C75U C87U | ≤ -4.2
20 | A21G A23U G67C G84U U144G | ≤ -4.2
21 | A20U U56A C79A G92A C95A C96G U148A | ≤ -4.2

Row | Variant | polymerase ribozyme fitness (log ratio)
22 | A21C A66G | -3.91
23 | A21G G50C A52C C79U C118U | ≤ -4.2
24 | A20U G25C C57U A113C G141C | ≤ -4.2
25 | A20C A30U C32U U55A C96G A97C C105A A107C G117C C125U | ≤ -4.2
26 | A21C C27U G84U A107U G126C U134A | ≤ -4.2
27 | A21U A30G C57U A91U U104A G126A | ≤ -4.2
28 | A21G C87U G140U | -3.6
29 | A20G C36U A52C G59A C75A | ≤ -4.2
30 | A20U G25U C27G A41U A49G U82G | ≤ -4.2
31 | A20C C54U C95U G140U | -3.23
32 | A20G A22U C87U | -2.33
33 | A21C U55A C96U | -0.915
34 | A20C G48C C75G G83A C118A C131A | ≤ -4.2
35 | A20G C96A | -1.84
36 | A21G A52C G83U G84A U90C C95G G100A C103G A107U U139G | ≤ -4.2
37 | A21G A40C G80C C85U A115G G143A | ≤ -4.2
38 | A20G A26U C38U U44A G94U | ≤ -4.2
39 | A20U A29G A91C C93A G128U | ≤ -4.2
40 | A20G G70C C75U C93A C95U U109C | ≤ -4.2
41 | A20C C57U A66C C116A U135G A137U | ≤ -4.2
42 | A21C C93A C99U G136U A142U | ≤ -4.2

Row | Variant | polymerase ribozyme fitness (log ratio)
43 | A21U A24U A64C U101G A110G A138C U145A | ≤ -4.2
44 | A21C C35U U44A U53A U101G | ≤ -4.2
45 | A20U A24G A29C C38G G80C A89G C105U C116G | ≤ -4.2
46 | A21C C27G U53G G58C C76A A91G U148G | ≤ -4.2
47 | A20U C36U G92A A106C G126U U130G | ≤ -4.2
48 | A20U A52U A89C | -3.39
49 | A20C C43U C93G G141A | ≤ -4.2
50 | A20U U82G C93U | -2.36
51 | A21G A40U U56A C132A | -3.09
52 | A21U G34U C93G G94A G140C | ≤ -4.2
53 | A21U G25U G84A C93G U127A U135C | ≤ -4.2
54 | A21G A24U C93G | -4.02
55 | A20U C32G C96G A120U | ≤ -4.2
56 | A21U A24C U33C G94A A107C | ≤ -4.2
57 | A20U A52G C75U G88A C103G A119C | ≤ -4.2
58 | A21U A52G C76A G81C C87G C114U A121C U146A | ≤ -4.2
59 | A20C A60C C85A | -2.66
60 | A21G A26C C54A G74C A110U A138U | ≤ -4.2
61 | A20U A21C G34A C43U C79A U148C | ≤ -4.2
62 | A20C G83A A107G A120C G126U | ≤ -4.2
63 | A21C C93A U104A G141C U144G G152A | ≤ -4.2

Row | Variant | polymerase ribozyme fitness (log ratio)
64 | A20U A29C | ≤ -4.2
65 | A20C C87G | ≤ -4.2
66 | A20C U53A | -2.16
67 | A21U A23U A47C G83A A137U | ≤ -4.2
68 | A20G A66G G84A G141C U145A | ≤ -4.2
69 | A21U C38A | 0.268
70 | A20U G50A A89U A91G | ≤ -4.2
71 | A21G G94U A115G A138U G141A G143C | ≤ -4.2
72 | A21C G25C C76G A137C U145G | ≤ -4.2
73 | A20G A24U A26U U148G | ≤ -4.2
74 | A20C A49U A60C | -3.14
75 | A20U A52C | -2.87
76 | A20U A24C A26U U33C C35A C63U C75A | ≤ -4.2
77 | A21C C27A A40U G46A C57U C87G G126A | ≤ -4.2
78 | A20U U31C A49C C57U A60G G62C C96A | -4.15
79 | A21U G25C A29U U33A A37U A66C G70C G88U G124U | ≤ -4.2
80 | A21C U53A C72U C76G C87U A120C | ≤ -4.2
81 | A21G C36A C57U A64G G94U G126C A138G | ≤ -4.2
82 | A21C C87G C96U | ≤ -4.2
83 | A21U A26U A28U G67A G88A A122U | ≤ -4.2

Reference: the RNAGym collection of RNA variant scans (doi:10.1073/pnas.2313332121)
